Results from the supplement of paper PMC8674133.
Residue numbers refer to the chain shown, from its start. Recombinant human monoclonal antibodies (heavy:light variable regions). ELISA EC50 on the named antigen, from 10 µg/ml down; IC50 / IC90 against spike pseudovirus on 293T-ACE2 cells, 48 h; lower = stronger. Calls: IC50 above 1,000 ng/ml = non-neutralizing; EC50 above 2,000 ng/ml = non-binder. The source prints 1000 for neutralization that was not reached; it is given as >1000 ng/ml. A few antibodies were first reported in earlier work of the same group.

B1: C1274 (protein)
chain 1: EVQLVESGGGLVQPGGSLRLSCAASGFTFSSYDMHWVRQVAGKGLEWVSAMGTAGDTYYADSVKGRFTISRENAKNSLYLQLNSLRAGDTAVYYCARGDTSMISETSQNYYYYYMDVWGKGTTVTVSS
chain 2: DIQMTQSPSSLSASVGDRVTITCRASQSIRRYLNWYQQKPGKAPKLLIYAASSLQSGVPSRFSGSGSGTDFTLTISSLQPEDFATYYCQQSYSSPPWTFGQGTKVEIK
B2: C1455 (protein)
chain 1: QVQLVQSGAEVKKPGSSVKVSCKASGGTFSSFIISWVRQAPGQGLEWMGRIIPIVGKANYAQKFQGRVTITADKSASTAYMELSSLRSEDTAVYYCAREDIEEVPAAFAYAFDIWGQGTMVTVSS
chain 2: EIVLTQSPGTLSLSPGERATLSCRASQSLSSSYLAWYQQKPGQAPRLLIYGASSRATGIPDRFSGSGSGTDFTLTISRLEPEDFAVYYCQQFVTSPPSWTFGQGTKVEIK
B3: C1457 (protein)
chain 1: QVQLVQSGAEVKKPGSSVKVSCKASGGTFSSYTISWVRQAPGQGLDWMGRIIPILGIANYAQKFQGRVTITADKSTSTAYMELSSLRSEDTAVYYCARDNVEGYNSSSIYWFDPWGQGTLVTVSS
chain 2: QSVLTQPPSVSGAPGQRVTISCTGSSSNIGAGYDVHWYQQLPGTAPKLLIYDNSNRPSGVPDRFSGSKSGTSASLAITGLQAEDEADYYCQSYDSSLSDYVFGPGTKVTVL
B4: C1459 (protein)
chain 1: QVQLVQSGAEVKKPGASVKVSCKASGYSITTYYMHWVRQAPGQGLEWMGIINPSAGSTSYAQKFQGRVTMTRDTATSTVYMDLSSLRSEDTAVYYCARGGLIPDSTNWFDPWGQGTLVTVSS
chain 2: EIVLTQSPATLSLSPGERATLSCRASQSVSSYLAWYQQKPGQAPRLLIYDASNRATGIPARFSGSGSGTDFTLTISSLEPEDFAVYYCQQRSNSFTFGPGTKVDIK
B5: C1460 (protein)
chain 1: QVQLVQSGGEVKKPGASVKVSCRASGYTFTSYSISWVRQAPGQGLEWMGWIYTYNGDTNYAQKLQGRVTMTTDTSTSTVYMELRSLRSDDTAVYYCARVETYYCSGGSCYFYDYWGQGTLVTVSS
chain 2: EIVMTQSPATLSVSPGERATLSCRASQSVSSNLGWYQQKPGQAPRLLIYGASTRATGIPARFSGSGSGTEFTLTISSLQSEDFAVYYCQQYDNWPPTWTFGQGTKVEIK
B6: C1461 (protein)
chain 1: EVQLVESGGGLEQPGGSLRLSCAASGFSFSSYDMHWVRQVTGKGLEWVSAIGTSGDTYYSGSVKGRFTISRENAKNSLYLQMNNLRAGDTAVYYCARGTTVTTGPIRSYYYYMDVWGKGTTVTVSS
chain 2: B1 chain 2 with R30S, L46V, P80V
B7: C1463 (protein)
chain 1: QVQLVESGGGVVQPGRSLRLSCAASGFTFSNYAMHWVRQAPGKGLEWVAVISYDGSNKYYTDSVKGRFTISRDTSKNTLYLQMNSLRAEDTAVYFCARQLYYYDRSGFLHGDAFDIWGQGTMVTVSS
chain 2: DIQMTQSPSSLSASVGDRVTITCRASQGISNYLAWYQQKPGKVPKLLIYAASTLQSGVPSRFSGSGSGTDFTLTISSLQPEDVATYYCQKYNSAPTWTFGQGTKVEIK
B8: C1464 (protein)
chain 1: VQLVESGGGLVKPGGSLRLSCAASGFTFSRYSMNWVRQSPGKGLEWVSSIRSSSTDIYYADSVRGRFTISRDNAKNSLYLQMNSLRAEDTAVYYCARAFPGDYASDDYYYYYGMDVWGQGTTVTVSS
chain 2: SYELTQPPSVSVSPGQTASITCSGHKLGDKYACWYQQKPGQSPVLLIYQDSKRPSGISERFSGSNSGNTATLTISGTQAMDEADYFCQAWDSTTAWGVFGGGTKLTVL
B9: C1187 (protein)
chain 1: QVQLQQWGAGLRKPSETLSLTCAVYGGSFSAYYWNWIRQSPGKGLEWIGETHHTGSTKYNPSLKSRVTISVDTSKNQFSLKLSSVTAADTAVYYCARATYYYDSSSYGINWFAPWGPGTLVTVSS
chain 2: B3 chain 2 with S26R, Q40H, D52V, S54N, F64I, S95N, S96D, L97V, D99G, P104G
B10: C1188 (protein)
chain 1: QVQLVQSGAEVKKPGSSVKVSCRASGGTFSSYAITWVRQAPGQGLEWMGRIIPRFGTASNAQKFQGRVTITADESTSTASMELSSLRSEDTAVYYCATGVVHIVVVPTYHSYYGLDVWGQGTTVTVSS
chain 2: QSALTQPRSVSGSPGQSVTISCTGTSSDVGGYDYVSWYQQHPGKAPKLMIYDVSKRPSGVPDRFSGSKSGDTASLTISGLQAEDEAEYFCCSYAGSYTHVFGTGTEVTVL
B11: C1189 (protein)
chain 1: QVQLQESGPGLVKPSGTLSLTCTISGGSISSSNWWSWVRQSPEKGLEWIGEVFHSGSTYYNPSLKSRVTISIDKSKNQFSLQLTSMTAADTAVYYCARSSGLLDYWGQGTLVTVSS
chain 2: DIQMTQSPSSLSASVGDRVTITCRASQGIGNSLAWYQQKPGKAPKFLLYAASTLESGVPSRFSGSGSGTDFTLTISSLQPEDFATYYCQQYYSTRTFGQGTKVEIK
B12: C1195 (protein)
chain 1: QLQLQESGPGLVKPSETLSLTCTVSGGSISSINYYWGWIRQPPGKGLEWIGSVYYSGSTYYKSSLKSRVTISVDTSKNHFSLKLISVTASDTAVYYCARLPLGYCSGGTCFPKSLWGQGTLVTVSS
chain 2: DIQMTQSPSSLSASVGDRVTITCQASQDISNYLSWYQQKPGKAPKLLIYDASNLETGVPSRFSGSGSGTDFTFTISSLQPEDIATYYCQQYDDLPALSFGGGTKVEIK
B13: C1196 (protein)
chain 1: QLQLQESGPGLVRPSETLSLTCTVSGGSISSSGYYWDWVRQPPGKGLEWIGSIYYSGSTYSNPSLKSRVTISVDTSQNQFSLNLSSVTATDTAVYYCARGLGAFDYWGQGTLVTVSS
chain 2: DIQMTQSPSSLSASVGDRVTITCRASQGISNSLAWYQQRPGRAPRLLVYAASTLESGVPSRFSGSGSGTDFTLTISSLHPEDFATYYCQQYYSAPPRTFGQGTKVEIK
B14: C2436 (protein)
chain 1: QVQLQESGPGLVKPSQTLSLTCTVSGGSVSRNGDYWSWVRQHPGKGLEWIGNIYYSGSTFFNPSLKSRVIMSIDTSKNQFSLKLSSVTAADTAVYYCARDTLWGAFDIWGQGTMVTVSS
chain 2: IRMTQSPSSLSASVGDRVTITCQASQDIRKSLNWYQQKLGKAPKLLIYDVSNLETGVPSRFSGSGSGTDFIFTINSPQPEDMATYFCQQYENPPRTFGQGTKVEIK
B15: C1197 (protein)
chain 1: EVQLVQSGAEVKKPGESLRISCKGSGYSFTSYWITWVRQMPGKGLEWMGRIDPSDSYTNYSPSFQGHVTFSADKSITTAYLQWSSLKASDTAMYYCARPEYCSTTTCSDDAFDIWGQGTMVTVSS
chain 2: DIQMTQSPSSLSASVGDRVTITCRASQSIGTYLNWYQQKPGKAPKLLIYTASSLQSGVPSRFSGSGSGTDFTLTISSLQPEDFATYYCQQSYSTVTFGPGTKVDIK
B16: C1198 (protein)
chain 1: QVQLVQSGAEVKKPGSSVRVSCKASGGTFSSYAISWVRQAPGQGLEWMGGIIPMLGTGRYAQKFQGRVTITADESTRTTYMDLSSLRSEDAAVYYCARDRGPPPGGRYGFYYGMDVWGPGTTVTVSS
chain 2: QSALTQPASVSGSPGQSITISCTGTSSDVGGYNYVSWYQQHPGTAPKLVISDVSDRPSGVSNRFSGSKSGNTASLTISGLQAEDEADYYCSSYRSSSTLVVFGGGTKLTVL

target: SARS-CoV-2 Wuhan-Hu-1 spike pseudovirus; assay: pseudovirus neutralization IC50; higher = weaker neutralization
Protocol: (§1)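 Single-round luciferase reporter pseudovirus mixed with antibody dilutions and put on 293T-ACE2 cells for 48 h; signal relative to no-antibody wells, four-parameter fit.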

Binder | pseudovirus neutralization IC50
B1 | > 1 µg/mL
B2 | 0.00207 µg/mL
B3 | 0.12 µg/mL
B4 | > 1 µg/mL
B5 | 0.166 µg/mL
B6 | > 1 µg/mL
B7 | 0.0267 µg/mL
B8 | 0.349 µg/mL
B9 | 0.522 µg/mL
B10 | > 1 µg/mL
B11 | 0.0153 µg/mL
B12 | 0.0258 µg/mL
B13 | 0.00558 µg/mL
B14 | > 1 µg/mL
B15 | 0.0553 µg/mL
B16 | > 1 µg/mL

target: SARS-CoV-2 Wuhan-Hu-1 spike pseudovirus; assay: pseudovirus neutralization IC90; higher = weaker neutralization
Protocol: as §1

Binder | pseudovirus neutralization IC90
B1 | > 1 µg/mL
B2 | 0.0659 µg/mL
B3 | > 1 µg/mL
B4 | > 1 µg/mL
B5 | > 1 µg/mL
B6 | > 1 µg/mL
B7 | 0.378 µg/mL
B8 | > 1 µg/mL
B9 | > 1 µg/mL
B10 | > 1 µg/mL
B11 | 0.0555 µg/mL
B12 | 0.343 µg/mL
B13 | 0.0516 µg/mL
B14 | > 1 µg/mL
B15 | > 1 µg/mL
B16 | > 1 µg/mL

target: SARS-CoV-2 Wuhan-Hu-1 spike receptor-binding domain; assay: ELISA binding EC50; higher = weaker binding; ELISA of recombinant human antibody on coated antigen, from 10 µg/ml in fourfold dilutions; four-parameter fit.

Binder | ELISA binding EC50
B1 | 0.00169 µg/mL
B2 | 0.00118 µg/mL
B3 | 0.00213 µg/mL
B4 | 0.00404 µg/mL
B5 | 0.00195 µg/mL
B6 | 0.00282 µg/mL
B7 | 0.00174 µg/mL
B8 | 0.00249 µg/mL
B9 | 0.00284 µg/mL
B10 | 0.00381 µg/mL
B11 | 0.00231 µg/mL
B12 | 0.0035 µg/mL
B13 | 0.002 µg/mL
B14 | 0.00586 µg/mL
B15 | 0.00277 µg/mL
B16 | 0.0155 µg/mL
